According to paper PMC11492232:
No constants are given. Whether binding was seen depends on the method and setting. Binding seen in cells or lysates may run through a third protein. Some entries that bind do so weakly or less than the wild type. Blank lines part the entries; values can stand above or below the substance they belong to.

By UniProt entry, the sequences of proteins in these tests, tags left out. Where a name states a change or a piece, a line headed by the entry shows the natural chain unless it says otherwise. Residues count along the entry.
UniProt Q8N884: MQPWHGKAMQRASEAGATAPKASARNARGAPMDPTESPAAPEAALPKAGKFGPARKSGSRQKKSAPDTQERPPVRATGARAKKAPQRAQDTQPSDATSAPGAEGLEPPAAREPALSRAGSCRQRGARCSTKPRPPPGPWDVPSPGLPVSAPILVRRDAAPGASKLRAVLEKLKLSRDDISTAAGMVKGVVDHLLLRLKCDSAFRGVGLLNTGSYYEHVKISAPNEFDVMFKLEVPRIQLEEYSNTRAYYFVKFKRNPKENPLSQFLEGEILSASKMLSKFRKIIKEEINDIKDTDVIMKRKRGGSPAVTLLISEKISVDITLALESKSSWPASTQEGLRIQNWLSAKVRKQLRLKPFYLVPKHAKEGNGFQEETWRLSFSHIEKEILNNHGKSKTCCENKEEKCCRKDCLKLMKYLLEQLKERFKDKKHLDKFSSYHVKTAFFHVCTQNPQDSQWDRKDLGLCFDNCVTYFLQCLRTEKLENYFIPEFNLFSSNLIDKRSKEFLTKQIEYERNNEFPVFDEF
His-Xp-cGAS-1–330: residues 1-330 of Q8N884
His-Xp-cGAS-1–213: residues 1-213 of Q8N884
His-Xp-cGAS-213–522: residues 213-522 of Q8N884
His-Xp-cGAS-330–522: residues 330-522 of Q8N884
UniProt P51812: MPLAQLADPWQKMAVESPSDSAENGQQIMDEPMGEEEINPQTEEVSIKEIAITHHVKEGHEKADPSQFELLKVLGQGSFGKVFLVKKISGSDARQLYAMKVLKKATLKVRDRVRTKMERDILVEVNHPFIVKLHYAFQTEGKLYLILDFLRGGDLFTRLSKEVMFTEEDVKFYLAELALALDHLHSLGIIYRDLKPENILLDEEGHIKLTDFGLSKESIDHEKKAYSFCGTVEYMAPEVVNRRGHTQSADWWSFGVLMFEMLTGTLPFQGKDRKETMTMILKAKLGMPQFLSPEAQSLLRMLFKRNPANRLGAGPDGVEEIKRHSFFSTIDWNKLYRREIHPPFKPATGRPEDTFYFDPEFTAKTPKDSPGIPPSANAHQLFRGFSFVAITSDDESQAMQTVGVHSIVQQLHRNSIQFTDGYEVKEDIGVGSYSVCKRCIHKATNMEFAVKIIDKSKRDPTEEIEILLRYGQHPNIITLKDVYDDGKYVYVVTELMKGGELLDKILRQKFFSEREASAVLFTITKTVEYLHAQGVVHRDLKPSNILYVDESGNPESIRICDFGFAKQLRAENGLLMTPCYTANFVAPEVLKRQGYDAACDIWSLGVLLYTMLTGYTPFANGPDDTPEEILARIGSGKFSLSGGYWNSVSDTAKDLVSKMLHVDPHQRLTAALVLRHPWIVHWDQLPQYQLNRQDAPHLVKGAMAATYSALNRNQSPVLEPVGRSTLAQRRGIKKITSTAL

How the values were obtained:
His-Xp-cGAS-FL (human) = His-Xp-cGAS-FL (human) (UniProt Q8N884); experiment: co-IP; lysates of HEK293T cells transiently expressing HA-RSK2 and His-Xp-cGAS constructs; Western blot
[1] = target: His-Xp-cGAS-1–213 (human) (UniProt Q8N884); experiment: as above
[2] = target: His-Xp-cGAS-1–330 (human) (UniProt Q8N884); experiment: as above
[3] = target: His-Xp-cGAS-213–522 (human) (UniProt Q8N884); experiment: as above
[4] = target: His-Xp-cGAS-330–522 (human) (UniProt Q8N884); experiment: as above
His-cGAS (human) = His-cGAS (human) (UniProt Q8N884); experiment: pull-down; partially purified His-cGAS bound to HisPur Ni-NTA resin, combined with lysates of SK-MEL-2 cells stably expressing HA-mock or HA-RSK2, with or without EGF (10 ng/ml), overnight at 4 °C; wash 100 mM NaCl, 20 mM Tris pH 8.0, 1 mM EDTA, 0.5% NP-40; blot with RSK2 and HA antibodies; only the target purified
Flag-cGAS (human) = Flag-cGAS (human) (UniProt Q8N884); experiment: co-IP; lysates of SK-MEL-2 cells stably expressing HA-RSK2 and Flag-cGAS; RIPA lysis buffer, protein G Sepharose, 4 °C; wash 20 mM Tris pH 8.0, 100 mM NaCl, 1 mM EDTA, 0.5% NP-40; Western blot
HA-cGAS (human) = HA-cGAS (human) (UniProt Q8N884); experiment: co-IP; lysates of HEK293T cells transiently expressing HA-cGAS and His-Xp-RSK2 constructs; RSK2 band detected in the precipitate; Western blot
[5] = target: endogenous cGAS (human (endogenous in SK-MEL-2)) (UniProt Q8N884); experiment: co-IP; endogenous cGAS and RSK2 in SK-MEL-2 cell lysate; protein G Sepharose, 4 °C; Western blot

binding (His-Xp-cGAS-FL (human)): binds
binding [1]: no binding
binding [2]: binds
binding [3]: binds
binding [4]: no binding
binding (His-cGAS (human)): binds
binding (Flag-cGAS (human)): binds
Substance: HA-RSK2 (from UniProt P51812 1-740) (enzyme)

binding (HA-cGAS (human)): binds
Substance: His-Xp-RSK2-FL (from UniProt P51812 1-740) (enzyme)

binding [5]: binds
Substance: endogenous RSK2 (from UniProt P51812 1-740) (enzyme)
